# Test results published in PubChem BioAssay AID2528 (National Center for Advancing Translational Sciences (NCATS), 2010).
# About 700 (0.2%) of roughly 350,000 compounds were called active. This list was built around the results that the source calls inconclusive (neither active nor inactive); the mix of calls is not that of the screen. The call rests on the fitted dose curve; in most records, active means well fitted inhibition curve with a large enough effect; inconclusive means small, poorly fitted or top-dose-only effect; inactive means flat fitted curve, though single readings scatter. No potency is given beside an inconclusive call; the fits are too rough. A structure can be active in one record and inactive in another.
# Target: RecQ-like DNA helicase BLM (Homo sapiens) (UniProt P54132)
# UniProt P54132, sequence (P54132 whole entry, looked up): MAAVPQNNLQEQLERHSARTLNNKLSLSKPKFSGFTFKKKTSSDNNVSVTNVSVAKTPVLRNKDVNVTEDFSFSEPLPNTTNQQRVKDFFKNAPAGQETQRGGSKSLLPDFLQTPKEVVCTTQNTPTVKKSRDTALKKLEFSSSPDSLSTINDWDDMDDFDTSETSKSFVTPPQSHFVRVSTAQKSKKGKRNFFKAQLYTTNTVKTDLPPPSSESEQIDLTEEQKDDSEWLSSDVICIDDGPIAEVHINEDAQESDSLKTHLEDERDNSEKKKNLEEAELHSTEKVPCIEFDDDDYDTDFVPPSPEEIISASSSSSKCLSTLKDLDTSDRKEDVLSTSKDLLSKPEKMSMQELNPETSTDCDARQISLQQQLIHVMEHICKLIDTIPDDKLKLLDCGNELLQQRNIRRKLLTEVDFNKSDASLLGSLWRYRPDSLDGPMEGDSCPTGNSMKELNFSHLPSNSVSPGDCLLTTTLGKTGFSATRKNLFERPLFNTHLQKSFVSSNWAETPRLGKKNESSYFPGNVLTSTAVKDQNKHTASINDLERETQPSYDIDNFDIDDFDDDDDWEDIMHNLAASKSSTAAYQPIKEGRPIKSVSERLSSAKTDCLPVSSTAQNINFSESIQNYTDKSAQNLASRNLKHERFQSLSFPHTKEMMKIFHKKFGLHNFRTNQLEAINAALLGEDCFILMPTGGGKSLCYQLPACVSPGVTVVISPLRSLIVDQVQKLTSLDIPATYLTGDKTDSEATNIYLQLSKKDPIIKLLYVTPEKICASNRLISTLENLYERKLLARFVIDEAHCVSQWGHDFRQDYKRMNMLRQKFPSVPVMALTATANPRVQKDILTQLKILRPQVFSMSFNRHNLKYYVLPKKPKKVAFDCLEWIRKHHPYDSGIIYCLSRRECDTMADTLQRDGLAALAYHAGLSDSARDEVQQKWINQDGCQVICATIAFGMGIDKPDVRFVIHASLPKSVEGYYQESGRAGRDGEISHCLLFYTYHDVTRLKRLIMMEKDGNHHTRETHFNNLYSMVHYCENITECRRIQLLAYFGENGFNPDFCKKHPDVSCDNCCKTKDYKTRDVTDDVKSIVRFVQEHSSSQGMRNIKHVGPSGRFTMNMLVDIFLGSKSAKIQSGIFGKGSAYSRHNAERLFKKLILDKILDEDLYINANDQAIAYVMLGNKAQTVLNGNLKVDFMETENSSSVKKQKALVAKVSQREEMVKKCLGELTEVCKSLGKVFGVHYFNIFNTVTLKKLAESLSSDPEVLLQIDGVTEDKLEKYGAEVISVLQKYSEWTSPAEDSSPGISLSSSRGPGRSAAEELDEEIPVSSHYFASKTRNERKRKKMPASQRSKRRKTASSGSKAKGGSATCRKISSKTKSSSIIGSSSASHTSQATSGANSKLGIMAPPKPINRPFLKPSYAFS
# Assay: qHTS Assay for Inhibitors of Bloom's syndrome helicase (BLM); further: nearly all actives have a fitted effect of over 35% in size;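 on activity change, negative = inhibition: plate controls were vehicle for no effect and no enzyme for full effect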
# Conditions: recombinant BLM DNA unwinding, fluorescence dequenching; series mostly up to 56.1 µM; activity change, negative = inhibition: at the top concentration
# Potency means the concentration at half of the fitted maximal effect; tags describe the fitted curve by direction and shape.
SMILES,Potency,"activity change, negative = inhibition"
N#CC1=C(N)SC(N)=C(C#N)C1c1ccoc1,"inconclusive [inhibitor, partial curve]",
CC1Cn2c(COc3ccccc3)nnc2S1 (stereo unspecified),,inactive: 4.36%
COc1ccc(-c2csc(NC(=O)c3ccccc3NS(=O)(=O)c3ccc(F)c(F)c3)n2)cc1,"inconclusive [inhibitor, single point]",
COc1cc(/C=C2/SC(=S)N(CC(=O)O)C2=O)ccc1OCC(=O)Nc1ccc(C)c(C)c1,"inconclusive [inhibitor, single point]",
COC(=O)c1c(NC(=O)Cc2cccs2)sc2c1CCCC2,,inactive: -24.7%
Cc1ccc(/C=C/C(=O)Nc2cccnc2)o1,"inconclusive [inhibitor, single point]",
CCOc1ccc(Nc2nc(N)c([N+](=O)[O-])c(N3CCN(CC)CC3)n2)cc1,"inconclusive [inhibitor, single point]",
C/C(=N/NC(=O)c1cc2ccccc2cc1O)C1C(=O)c2ccccc2C1=O,active: 28.2 µM,
Cc1ccc(-c2ncc(Cl)cc2-c2ccc(S(C)(=O)=O)cc2)cn1,,inactive: 2.81%
COc1ccc(NC(=O)CN2C(=O)S/C(=C/c3cccn3-c3ccc(C(=O)O)cc3)C2=O)cc1,"inconclusive [inhibitor, single point]",
O=C1NC(=O)C2C3C=CC(C3)C12 (stereo unspecified),,inactive: 1.6%
CNc1ccc(Br)cc(C(=O)/C=C/c2ccc(OC)cc2)c1=O,"inconclusive [inhibitor, single point]",
[O][C@H]1[C@@H](O)[C@@H](CO)O[C@@H](O[C@@H]2[C@@H]3OC[C@H]2O[C@H](O[C@@H]2[C@@H](O)[C@H](C[C@@H]4[C@@H]5OC[C@H]4O[CH][C@@H]5O)O[C@H](CO)[C@@H]2OS(=O)(=O)O)[C@@H]3OS(=O)(=O)O)[C@@H]1O,"inconclusive [inhibitor, single point]",
Cc1ccccc1NC1=C/C(=N\S(=O)(=O)c2ccc(C(=O)O)cc2)c2ccccc2C1=O,active: 7.08 µM,
CCn1c(C)nc2cc(C(=O)N/N=C/c3ccc(O)c(O)c3O)ccc21,active: 6.31 µM,
COc1ccc(-c2nc3cnc(N4CCNCC4)nc3n(Cc3cccc(OC)c3)c2=O)cc1,"inconclusive [inhibitor, single point]",
CCOC(=O)COc1ccc(C)cc1C(=O)c1ccn2nc(-c3ccc(Cl)cc3)cc2n1,,inactive: -4.91%
CCOc1ccccc1NC(=O)N1CCC(C(=O)c2ccc(F)cc2)CC1,"inconclusive [inhibitor, full curve, poor fit]",
CSc1nc(SCCO)c2sc3nc(-c4ccco4)c4c(c3c2n1)CC(C)(C)OC4,active: 12.6 µM,
O=C1N/C(=C\c2ccc(O)cc2)C(=O)c2ccccc21,active: 31.6 µM,
O=c1nc2c(O)cccn2c2c1c(=O)[nH]c1ccccc12,active: 7.94 µM,
O=C(O)c1ccc(-c2nc(-c3ccccc3)c(-c3ccccc3)[nH]2)cc1,,inactive: 2.01%
CCN(CC)c1ccc(/C=C/C(=O)C2C(=O)C=C(C)OC2=O)cc1 (stereo unspecified),"inconclusive [inhibitor, partial curve]",
CCCCC1=CC2=C(c3ccco3)C(=O)C(C)(OC(=O)c3ccc(OC)cc3)C(=O)C2=CN1Cc1ccco1 (stereo unspecified),"inconclusive [inhibitor, full curve, poor fit]",

SMILES,Potency,"activity change, negative = inhibition"
Cc1cccc(N=C2NC(=O)/C(=C/C=C/c3ccco3)S2)c1,"inconclusive [inhibitor, single point]",
Cc1ccc2c(c1)N(C(=O)CCC(=O)NCc1ccccc1Cl)CC(C)O2 (stereo unspecified),,inactive: -5.53%
CCN1CC=C2C(C#N)=C(N)C(C#N)(C#N)[C@H](c3ccoc3)[C@H]2C1,active: 28.2 µM,
COc1ccc2[nH]cc(CCNc3nc(-c4ccc(N(C)C)cc4)nc4ccccc34)c2c1,"inconclusive [inhibitor, single point]",
CCc1ccc(S(=O)(=O)Nc2cc(SCC(=O)O)c(O)c3ccccc23)cc1,active: 17.8 µM,
Nc1cc(-c2ccncc2)c[nH]c1=O,"inconclusive [inhibitor, single point]",
O=C(Nc1nc2c(F)cccc2s1)c1ccc([N+](=O)[O-])o1,,inactive: -6.33%
O=C(O)CNC(=O)c1ccccc1I,inactive,
CCOC(=O)C1=C(O)/C(=C\c2ccc(CNC(=O)C(=O)Nc3ccccc3)o2)N=C1C,active: 35.5 µM,
Nc1nonc1-c1nc2ccccc2n1CC(=O)N/N=C/c1ccc(-c2ccccc2C(=O)O)o1,"inconclusive [inhibitor, single point]",
COc1ccc2nc3sc(C(=O)Nc4cc(Cl)c(OC)cc4OC)cc3cc2c1,"inconclusive [inhibitor, partial curve]",
CC1=CC(C)(C)N2C(=O)C(=Nc3ccc(O)cc3)c3cccc1c32,active: 31.6 µM,
CC(/C=C1\SC(=S)N(c2ccc(C(=O)O)cc2)C1=O)=C\c1ccccc1,"inconclusive [inhibitor, single point]",
O=C(O)C1Cc2ccccc2CN1C(=O)CSc1nnc2ccccn12 (stereo unspecified),,inactive: -0.44%
O=C(CSc1nc(NS(=O)(=O)c2ccccc2)cc(=O)[nH]1)Nc1ccc(Cl)cc1,"inconclusive [inhibitor, single point]",
CC1(C)Cc2c(C#N)c(N3CCN(C(=O)c4ccco4)CC3)nc(-c3ccco3)c2CS1,"inconclusive [inhibitor, single point]",
COCCCN=C1NN=C(c2cc(C)n(-c3ccccc3F)c2C)CS1,,inactive: -3.81%
COc1cc(NCCCC(C)N)c2ncccc2c1 (stereo unspecified),active: 35.5 µM,
CC1(C)OC(C)(C)/C(=C/Nc2ccc(O)cc2)C1=O,"inconclusive [inhibitor, partial curve]",
O=C(O)c1ccccc1/C=N/NC(=O)c1cc(-c2ccco2)nc2ccccc12,active: 14.1 µM,
Cc1ccc(OCC(=O)N/N=C/C=C/c2ccco2)cc1,,inactive: -22.6%
Cc1cc(C)cc(OCCCn2c(-c3ccc(Cl)cc3)nc3ccccc3c2=O)c1,,inactive: -25.5%
O=c1[nH]c(C(Cl)Cl)nc2sc3c(c12)CCN(Cc1ccccc1)C3,"inconclusive [inhibitor, partial curve]",
CC(=O)Nc1ccc(S(=O)(=O)NC(CC(=O)N(C)Cc2ccccc2)C(C)C)cc1 (stereo unspecified),,inactive: -1.68%

SMILES,Potency,"activity change, negative = inhibition"
Cc1cc(N2CCN(C)CC2)nc2ccc(NC(=S)N3CCN(c4ccc(Cl)cc4)CC3)cc12,"inconclusive [inhibitor, single point]",
O=C(NCc1ccco1)c1ccc([N+](=O)[O-])o1,"inconclusive [inhibitor, single point]",
[O-][n+]1onc2c1CCC(=N/O)/C2=N\Nc1ccccc1,active: 31.6 µM,
O=C1Cc2ccccc2C(=O)N1CCc1ccccc1,"inconclusive [inhibitor, partial curve]",
Cc1ccc(CN(CC(=O)N/N=C/c2ccccc2[N+](=O)[O-])S(=O)(=O)c2ccc(C)cc2)cc1,,inactive: -9.11%
CC[N+](CC)(CC)CCCCOc1ccc2c(c1)C(=O)c1cc(OCCCC[N+](CC)(CC)CC)ccc1-2,"inconclusive [inhibitor, single point]",
Cc1ccc(Oc2nc3ccccn3c(=O)c2/C=C(\C#N)C(=O)Nc2c(C)n(C)n(-c3ccccc3)c2=O)c(C)c1,,inactive: -3.65%
C(=C\c1ccco1)/c1ccc2ccccc2n1,"inconclusive [inhibitor, partial curve]",
OCCNC(=S)Nc1ccc2nsnc2c1,"inconclusive [inhibitor, single point]",
CC1CCCCC1NC(=O)COC(=O)c1c2c(nc3ccccc13)/C(=C/c1ccco1)CC2 (stereo unspecified),"inconclusive [inhibitor, partial curve]",
Cc1cc(-n2c(=O)c(C#N)cc3c(=O)n4ccccc4nc32)no1,"inconclusive [inhibitor, partial curve]",
CCOc1cc2c(C#N)c(N3CCCCC3)nc(N)c2c(N)n1,active: 28.2 µM,
Cc1ccc(-c2nnn(CC(=O)N3CCCCC3)n2)o1,,inactive: -2.64%
O=C(CSc1ccccc1F)NC(=O)NCc1ccco1,active: 15.8 µM,
Cc1cc(C)n2nc(SCc3cc(=O)oc4cc(O)ccc34)nc2n1,"inconclusive [inhibitor, single point]",
O=[N+]([O-])c1c(Nc2ccccn2)cc(Cl)c2nonc12,"inconclusive [inhibitor, partial curve]",
CN(C)c1cc(-c2ccc(Cl)cc2Cl)oc(=O)c1Cl,"inconclusive [inhibitor, single point]",
COC(=O)c1cc(NC(=O)Nc2ccc3snnc3c2)cc(C(=O)OC)c1,"inconclusive [inhibitor, partial curve]",
N[C@@H](CO)C(=O)NNCc1ccc(O)c(O)c1O,,inactive: 0.582% [at 21.4 µM]
Cc1nc(-c2ccc(C(=O)Nc3cc(S(N)(=O)=O)ccc3C)cc2)cs1,active: 7.08 µM,
COc1ccc(C(=O)/C=C/Nc2ccc(S(=O)(=O)Nc3nc(C)cc(C)n3)cc2)cc1OC,,inactive: -5.94%
O=C(NCCO)Nc1ccc2nc(-c3ccco3)c(-c3ccco3)nc2c1,"inconclusive [inhibitor, single point]",
C/C(N)=C(/C#N)C(=O)CSc1nn(-c2ccc(Cl)cc2)c(=S)s1,"inconclusive [inhibitor, single point]",
